Measured values as given in PubChem BioAssay AID624417 (National Center for Advancing Translational Sciences (NCATS), 2012).
Screen size: about 410,000 compounds; about 6,400 (1.6%) were called active. The shares of active, inactive and inconclusive entries below differ from those in the screen. Calls come from the whole dose curve; as a rule, active = well fitted inhibition curve with a large enough effect; inconclusive = small, poorly fitted or top-dose-only effect; inactive = no such curve, though single readings can be large or run the other way. Potencies of inconclusive entries are left out as doubtful fits.

molecular target: Glucagon-like peptide 1 receptor (Homo sapiens) (UniProt P43220); test: qHTS of GLP-1 Receptor Inverse Agonists (Inhibition Mode); settings: HEK293 GLP-1R CRE-luciferase, luminescence, 24 h, GLP-1R form is constitutively active; activity change, negative = inhibition: at 38.3 µM (top of the series) unless noted; note: nearly all actives have a fitted effect of over 55% in size
Summary of the method: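 Cells are plated, allowed 12 hours at 37 deg C, then treated with compounds for 24 hr before luciferase detection reagent is added and luminescence is read after 12 min at room temperature. The HEK293 line carries constitutively active GLP-1R with a cAMP-responsive reporter.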
% is set by controls: 0 for no effect and ±100 for the full control effect; potency is the fitted concentration of half-maximal effect; tags give direction and shape of the fitted curve.

Sequence of UniProt P43220 (P43220 whole entry, looked up): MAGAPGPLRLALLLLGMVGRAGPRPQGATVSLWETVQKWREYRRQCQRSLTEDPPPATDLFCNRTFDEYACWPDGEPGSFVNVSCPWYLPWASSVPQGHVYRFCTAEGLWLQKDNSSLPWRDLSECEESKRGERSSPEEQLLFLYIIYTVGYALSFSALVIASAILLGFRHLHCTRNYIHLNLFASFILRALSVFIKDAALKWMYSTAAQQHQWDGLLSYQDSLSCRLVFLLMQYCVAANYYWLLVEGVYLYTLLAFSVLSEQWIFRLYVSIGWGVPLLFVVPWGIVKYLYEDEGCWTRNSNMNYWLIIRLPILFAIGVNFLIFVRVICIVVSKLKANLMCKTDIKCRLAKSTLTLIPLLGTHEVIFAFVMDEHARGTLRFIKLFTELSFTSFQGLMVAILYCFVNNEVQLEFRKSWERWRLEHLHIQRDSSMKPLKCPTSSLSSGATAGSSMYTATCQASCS

SMILES | Potency | activity change, negative = inhibition
CCOc1cc([N+](=O)[O-])cc(/C=N/NC(=O)c2c(-c3ccccc3)noc2C)c1O | inconclusive [inhibitor, full curve, poor fit] | –
COc1ccc(NS(=O)(=O)c2ccc(SC)cc2)c(OC)c1 | inconclusive [inhibitor, single point] | –
CCN(CC)S(=O)(=O)c1ccc(N2CCOCC2)c(NC(=O)c2cc3ccccc3oc2=O)c1 | inconclusive [inhibitor, partial curve, poor fit] | –
COc1ccc(N(CC(=O)N2CCN(c3ccccc3)CC2)S(=O)(=O)c2c(C)noc2C)cc1 | inconclusive [inhibitor, partial curve] | –
COc1cccc(Nc2cc(-c3ccccc3)nc(C)n2)c1 | inconclusive [inhibitor, single point] | –
Cc1ccc(S(=O)(=O)N2[C@H](CC(=O)c3ccc(Cl)c(Cl)c3)OC[C@@H]2C(C)C)cc1 | inconclusive [inhibitor, single point] | –
O=c1[nH]c2ccccc2n1C1CCN(CCOc2ccccc2)CC1 | inconclusive [inhibitor, partial curve, poor fit] | –
O=C(Nc1nc2ccccc2s1)c1ccc2sc([C@H]3C[C@H](O)[C@@H](CO)O3)nc2c1 | inconclusive [inhibitor, single point] | –
CC(C)C1C(=O)N(Cc2cn(CCC3OCCO3)nn2)CCS(=O)(=O)N1Cc1ccc(-c2ccc(Cl)c(Cl)c2)cc1 (stereo unspecified) | inconclusive [inhibitor, partial curve, poor fit] | –
COc1ccccc1CN1C[C@@H]2C[C@@H](c3ccccc3C)N3CCC[C@@]23C1=O | inconclusive [inhibitor, single point] | –
NC(=O)c1cc(N2C(=O)C=CC2=O)ccc1Cl | inactive | –
CCCCn1c(CN2CCN(c3cccc(Cl)c3)CC2)nc2c1c(=O)[nH]c(=O)n2C | inconclusive [inhibitor, single point] | –
O=C(NCCCN1CCOCC1)c1cc(-c2ccc(Cl)s2)nc2ccccc12 | inconclusive [inhibitor, partial curve, poor fit] | –
COC(=O)c1cn(CC(=O)NCc2ccco2)c2ccccc12 | inactive | –
O=c1c2ccccc2c(-c2ccc(F)cc2)nn1-c1ccc(C(F)(F)F)cc1 | inconclusive [inhibitor, partial curve, poor fit] | –
COc1ccccc1N(CC(=O)NCCSCc1cccc(C)c1)S(=O)(=O)c1ccccc1 | inconclusive [inhibitor, partial curve, poor fit] | –
COc1ccccc1N1CCN(C2CCCN(S(=O)(=O)c3cccc(Cl)c3)C2)CC1 (stereo unspecified) | inconclusive [inhibitor, partial curve, poor fit] | –
O=C(O)c1cc2cc(Cl)ccc2oc1=O | inactive | –
CCc1nc2c(OCCC3CCCCC3)cccn2c1N(C)C(=O)c1ccc(C)cc1 | inconclusive [inhibitor, partial curve, poor fit] | –
CCN(CC)c1ccc(NC(=O)C(NS(=O)(=O)c2cccs2)C(C)C)c(C)c1 (stereo unspecified) | inconclusive [inhibitor, partial curve, poor fit] | –
COCCCNC(=S)NNC(=S)Nc1ccccc1 | inactive | –

SMILES | Potency | activity change, negative = inhibition
C#CCN(C[C@@H]1[C@@H](OC(=O)NCc2ccco2)[C@@H](OC(=O)NCc2ccco2)CN(C(=O)OC(C)C)N1C(=O)OC(C)C)S(=O)(=O)c1ccc(C)cc1 | inconclusive [inhibitor, single point] | –
C[C@H](CO)N1C[C@H](C)[C@@H](CN(C)Cc2ccc3c(c2)OCO3)Oc2c(NC(=O)C3CCCCC3)cccc2C1=O | inconclusive [inhibitor, single point] | –
COC(=O)c1sc(NC(=S)NC(=O)c2ccccc2C)nc1C | inconclusive [inhibitor, single point] | –
O=C(NCCc1cccs1)c1ccc(Cl)c(Cl)c1 | inconclusive [inhibitor, single point] | –
O=C(c1ccco1)N1CCN(Cc2csc(-c3ccccc3Cl)n2)CC1 | inconclusive [inhibitor, single point] | –
Cn1c(SCC(=O)N2CCCCCC2)nc2c(c1=O)SCC2 | inconclusive [inhibitor, full curve, poor fit] | –
CC(C)CC(COCc1ccc(Cl)cc1)N1CCN(C(=O)c2ccc(C(F)(F)F)cc2)CCC1=O (stereo unspecified) | inconclusive [inhibitor, single point] | –
COc1ccc(NC(=S)N(CCCN2CCC(C)CC2)Cc2cccs2)cc1Cl | inconclusive [inhibitor, single point] | –
C=CCN(CC(=O)Nc1cccnc1)S(=O)(=O)c1ccc(Cl)cc1 | inconclusive [inhibitor, single point] | –
CCCC(=O)N(Cc1cc(=O)[nH]c2ccccc12)c1ccccc1C | – | inconclusive: -30.2% [inhibitor]
O=C(NC(=S)N1CCOCC1)c1cn(-c2ccccc2)nc1-c1ccccc1 | inconclusive [inhibitor, partial curve, poor fit] | –
COCCOC(=O)C1=C(C)NC(C)=C(C(=O)OC(C)C)C1c1cccc([N+](=O)[O-])c1 (stereo unspecified) | inconclusive [inhibitor, partial curve, poor fit] | –
Cc1cc(N2CCN(C)CC2)ccc1NC(=O)c1cccc(S(=O)(=O)N2CCc3ccccc3C2)c1 | inconclusive [inhibitor, partial curve, poor fit] | –
COc1cc2c(cc1OC)[C@@H](NC(=O)C(C)C)[C@H](OCc1ccccc1)C2 | inconclusive [inhibitor, single point] | –
c1ccc2c(-c3[nH]ncc3CNCCCn3ncc4ccccc43)cccc2c1 | inconclusive [inhibitor, partial curve, poor fit] | –
CCCCn1nc(C(=O)N[C@@H](CCSC)c2nc3ccccc3[nH]2)c2ccccc2c1=O | inconclusive [inhibitor, single point] | –
CCOC(=O)C1(Cc2ccccc2Cl)CCN(S(=O)(=O)N(C)C)CC1 | inconclusive [inhibitor, single point] | –
NS(=O)(=O)c1ccc(NC(=S)NCc2ccccc2Cl)cc1 | inconclusive [inhibitor, partial curve] | –
CCN(CC)C(=O)C(=O)Nc1ccc(F)c(Cl)c1 | inactive | –
O=C(CN1CCN(c2ncc(C(F)(F)F)cc2Cl)CC1)Nc1ccc2c(c1)OCO2 | inconclusive [inhibitor, single point] | –
O=C(CSc1nnc(-c2cccs2)o1)Nc1cccc(C(F)(F)F)c1 | inactive | –

SMILES | Potency | activity change, negative = inhibition
COc1cc(Nc2ccc(S(=O)(=O)N3CCN(C)CC3)cc2[N+](=O)[O-])cc(OC)c1 | inconclusive [inhibitor, single point] | –
O=C(Nc1nc2ccccc2[nH]1)NC1CCCCC1 | inconclusive [inhibitor, single point] | –
Cc1cccc(-c2noc(CN(C(C)C)S(=O)(=O)c3ccc(Br)cc3)n2)c1 | inconclusive [inhibitor, single point] | –
OCCC1CN(Cc2cc3c(cc2Cl)OCO3)CCN1Cc1ccccc1 (stereo unspecified) | inconclusive [inhibitor, partial curve, poor fit] | –
CNCC(O)Cn1c2c(c3ccccc31)CCCC2 (stereo unspecified) | inconclusive [inhibitor, partial curve, poor fit] | –
Cc1cccc(NC(=O)Cn2nc(C)c3nn(-c4ccc(Cl)cc4)c(C)c3c2=O)c1C | inactive | –
COc1ccc2sc(-c3ccccc3OC)c(-c3ccc(O)cc3)c2c1 | inconclusive [inhibitor, partial curve, poor fit] | –
CN(c1ccccc1)S(=O)(=O)c1ccc2c(c1)OCCO2 | inconclusive [inhibitor, single point] | –
CNC(=O)c1c(Cl)cnn1-c1ccc(C)cc1 | inactive | –
CC(C1CCN(Cc2cn(C)nc2-c2cccc(Cl)c2)CC1)N1CCOCC1 (stereo unspecified) | inconclusive [inhibitor, partial curve] | –
COc1ccccc1/C=N/NC(=S)NCc1ccco1 | inconclusive [inhibitor, single point] | –
O=C(CCCn1c(=O)c2sccc2n(Cc2c(F)cccc2Cl)c1=O)NCc1ccccc1 | inactive | –
CCN1CCN(/C=N/c2nc3c(s2)CCCC3)CC1 | inconclusive [inhibitor, partial curve, poor fit] | –
COC(C[C@@H](O)C[C@@H](O)[C@@H](C)OCc1ccccc1)OC | inactive | –
O=C(NCc1ccccc1)c1noc2c1CCCC2 | inactive | –
CS(=O)(=O)N1CCC(C(=O)Nc2ccc(C(F)(F)F)cc2)CC1 | inconclusive [inhibitor, single point] | –
Cc1ccnc(N/N=C/c2ccccc2)n1 | inconclusive [inhibitor, single point] | –
Cc1ccc(-c2nc3ccccc3[nH]2)cc1NC(=S)NC(=O)c1ccccc1Br | inconclusive [inhibitor, single point] | –
CCOc1ccccc1C(=O)Nc1cc2c(cc1N1CCCC1)n(CC)c(=O)n2CC | inconclusive [inhibitor, partial curve, poor fit] | –
